Test results published in patent publication US20240376128A1, “N-CYCLOPROPYLPYRIDO [4, 3-D] PYRIMIDIN-4-AMINE DERIVATIVES AND USES THEREOF” (Jacobio Pharmaceuticals Co., Ltd., priority 2021, published 2024).
Where two headings read alike, the source gives them in different places.

Tests used:
[1] = system: K-Ras mutant and K-Ras WT cell lines indicated in Table 20; experiment: 2D cell growth inhibition assay (CellTiter-Glo, 6 days); assay type: cell-based
Method: Each of cells in culture medium was plated in TC-treated 96-well plates at a density indicated in Table 20 and incubated in a cell incubator overnight.

[2] = Mouse pharmacokinetic study; assay type: in vivo; details: female, Balb/c mouse, single dose 10 mg/kg, po, plasma; for AUC(0-t): read-out: AUC0-8h; for Cmax: read-out: Cmax
Method: The purpose of this study was to evaluate the pharmacokinetic properties of compounds in Balb/c mouse (♀) following single dose administration. Six mice were needed for each compound and the six mice were divided into two groups (n=3/group), group A and group B. Mice in group A were treated with a single 3 mg/kg dose of compound (iv). Mice in group B were treated with a single 10 mg/kg dose of compound (po). For each mouse in group A, blood samples were collected at the time point of 0.083, 0.5, 1, 2, 4 and 8 h post-dose. For each mouse in group B, blood samples were collected at the time point of 0.5, 1, 2, 4, 6 and 8 h post-dose. Blood samples were placed on ice until centrifugation to obtain plasma samples. The plasma samples were stored at −80° C. until analysis. The concentration of compound in plasma samples was determined using a LC-MS/MS method.
For the prodrug, only the oral PK study was performed and the dosage was adjusted to be equal to 10 mg/kg of parent drug. The concentrations of both prodrug and parent drug in plasma were determined using a LC-MS/MS method.

[3] = system: AGS cell line (K-Ras G12D); experiment: Phospho-ERK1/2(THR202/TYR204) HTRF assay; assay type: cell-based; details: Homo sapiens; AGS cells (K-Ras G12D), 2 hours incubation; read-out: p-ERK, IC50(nM) AGS
[4] = system: SW620 cell line (K-Ras G12V); experiment: Phospho-ERK1/2(THR202/TYR204) HTRF assay; assay type: cell-based; details: Homo sapiens, read-out: p-ERK, IC50(nM) SW620
[5] = biological target: K-Ras G12D (Homo sapiens, UniProt P01116, G12D); experiment: GTP-K-Ras (GppNp-K-Ras) and cRAF interaction assay, HTRF; details: read-out: Biochemical assays, IC50, K-Ras G12D GppNp
Source text: (§1) GppNp is an analog of GTP.

[6] = biological target: T1, K-Ras G12V (Homo sapiens, UniProt P01116, G12V); experiment: as above; details: read-out: Biochemical assays, IC50, K-Ras G12V GppNp
Source text: as §1

[7] = biological target: T1, K-Ras G12V; experiment: SOS1 catalyzed nucleotide exchange assay (GDP form K-Ras), TR-FRET; details: read-out: Biochemical assays, IC50, K-Ras G12V GDP
Method: (§2) The parameters were F486: Excitation 340 nm, Emission 486 nm, Lag time 100 pas, Integration time 200 pas; F515: Excitation 340 nm, Emission 515 nm, Lag time 100 pas, Integration time 200 pas. TR-FRET ratios for each individual wells were calculated by equation: TR-FRET ratio=(Signal F515/Signal F486)*10000.

[8] = biological target: T2, K-Ras G13D (Homo sapiens, UniProt P01116, G13D); experiment: GTP-K-Ras (GppNp-K-Ras) and cRAF interaction assay, HTRF; details: read-out: Biochemical assays, IC50, K-Ras G13D GppNp
Source text: as §1

[9] = biological target: T2, K-Ras G13D; experiment: Nucleotide exchange assay (GDP form K-Ras, no SOS1 added), TR-FRET; details: read-out: Biochemical assays, IC50, K-Ras G13D GDP
Method: as §2

[10] = 144 h, AGS (K-Ras G12D), absolute IC50, read-out: Cell Growth Inhibition, IC50, AGS
[11] = Homo sapiens, ASPC1, 144 h, AsPC-1 (K-Ras G12D), absolute IC50, read-out: Cell Growth Inhibition, IC50, AsPC-1
[12] = Homo sapiens, SW-620, 144 h, SW620 (K-Ras G12V), absolute IC50, read-out: Cell Growth Inhibition, IC50, SW620
[13] = SW-620, SW620 cells (K-Ras G12V), 2 hours incubation

SMILES | IC50 [1, 10] [µM] | IC50 [1, 11] [µM] | IC50 [1, 12] [µM] | AUC(0-t) [2] [µg·h/mL] | Cmax [2] [µg/mL] | IC50 [3] [nM] | IC50 [4, 13] [nM] | IC50 [5] [µM] | IC50 [6] [µM] | IC50 [7] [µM] | IC50 ([4]; SW-620, 2 h) [nM] | IC50 [8] [µM] | IC50 [9] [µM]
CCc1c(F)ccc2cc(O)cc(-c3ncc4c(N(C)[C@@H]5C[C@H]5F)nc(OC[C@@]56CCCN5C[C@H](F)C6)nc4c3F)c12.O=C(O)C(F)(F)F (mixture of isomers) [Compound 15, 5-ethyl-6-fluoro-4-(8-fluoro-4-((trans-2-fluorocyclopropyl)(methyl)amino)-2-(((2R,7aS)-2-fluorotetrahydro-1H-pyrrolizin-7a(5H)-yl)methoxy)pyrido[4,3-d]pyrimidin-7-yl)naphthalen-2-ol 2,2,2-trifluoroacetic acid] | 0.0241 | 0.122 | 0.0129 | 0.592 | 0.19 | 23.5 | 2.75 | – | – | – | – | – | –
C#Cc1c(F)ccc2cc(O)cc(-c3ncc4c(N(C)[C@@H]5C[C@H]5F)nc(OC[C@@]56CCCN5C[C@H](F)C6)nc4c3F)c12.O=C(O)C(F)(F)F (single isomer, unassigned) [Compound 3] | 0.012 | 0.0784 | 0.00432 | 3.15 | 0.947 | 4.74 | 2.69 | – | – | – | – | – | –
C#Cc1c(F)ccc2cc(O)cc(-c3nc(OC)c4c(N(C)C5CC5)nc(OC[C@@]56CCCN5C[C@H](F)C6)nc4c3F)c12 [Compound 2, 4-(4-(cyclopropyl(methyl)amino)-8-fluoro-2-(((2R,7aS)-2-fluorotetrahydro-1H-pyrrolizin-7a(5H)-yl)methoxy)-5-methoxypyrido[4,3-d]pyrimidin-7-yl)-5-ethynyl-6-fluoronaphthalen-2-ol] | 0.0509 | 0.949 | 0.0625 | 0.151 | 0.0736 | 27.8 | 17.4 | 0.122 | 0.232 | 0.00217 | – | – | –
C#Cc1c(F)ccc2cc(O)cc(-c3ncc4c(N(C)[C@@H]5C[C@@H]5F)nc(OC[C@@]56CCCN5C[C@H](F)C6)nc4c3F)c12 [Compound 13, 5-ethynyl-6-fluoro-4-(8-fluoro-4-(((1R,2S)-2-fluorocyclopropyl)(methyl)amino)-2-(((2R,7aS)-2-fluorotetrahydro-1H-pyrrolizin-7a(5H)-yl)methoxy)pyrido[4,3-d]pyrimidin-7-yl)naphthalen-2-ol] | – | – | 0.0999 | – | – | – | 34.8 | – | – | – | – | – | –
C#Cc1c(F)ccc2cc(O)cc(-c3ncc4c(NC5CC5)nc(OC[C@@]56CCCN5C[C@H](F)C6)nc4c3F)c12 [Compound 18, 4-(4-(cyclopropylamino)-8-fluoro-2-(((2R,7aS)-2-fluorotetrahydro-1H-pyrrolizin-7a(5H)-yl)methoxy)pyrido[4,3-d]pyrimidin-7-yl)-5-ethynyl-6-fluoronaphthalen-2-ol formic acid] | – | – | 0.135 | – | – | – | – | – | – | – | 49.3 | – | –
C#Cc1c(F)ccc2cc(O)cc(-c3ncc4c(N(C)C5(C)CC5)nc(OC[C@@]56CCCN5C[C@H](F)C6)nc4c3F)c12 [Compound 19] | – | – | – | – | – | – | 89.2 | – | – | – | – | – | –
[2H]C([2H])([2H])N(c1nc(OC([2H])([2H])[C@@]23CCC([2H])([2H])N2C[C@]([2H])(F)C3)nc2c(F)c(-c3cc(O)cc4ccc(F)c(C#C)c34)ncc12)C1CC1 [Compound 26, 4-(4-(cyclopropyl(methyl-d3)amino)-8-fluoro-2-(((2R,7aS)-2-fluorotetrahydro-1H-pyrrolizin-7a(5H)-yl-2,5,5-d3)methoxy-d2)pyrido[4,3-d]pyrimidin-7-yl)-5-ethynyl-6-fluoronaphthalen-2-ol] | 0.118 | 0.776 | 0.0205 | 2.59 | 0.813 | 36.2 | 8.74 | 0.126 | 0.172 | 0.00189 | – | 0.0203 | 0.0104
C#Cc1c(F)ccc2cc(O)cc(-c3ncc4c(N(C5CC5)C5CC5)nc(OC[C@@]56CCCN5C[C@H](F)C6)nc4c3F)c12 [Compound 48, 4-(4-(dicyclopropylamino)-8-fluoro-2-(((2R, 7aS)-2-fluorotetrahydro-1H-pyrrolizin-7a(5H)-yl)methoxy)pyrido[4,3-d]pyrimidin-7-yl)-5-ethynyl-6-fluoronaphthalen-2-ol] | – | – | – | – | – | – | – | 2.62 | 3.71 | 0.0102 | – | > 0.1 | 0.05
C#Cc1c(F)ccc2cc(O)cc(-c3ncc4c(N(C)C5(C#N)CC5)nc(OC[C@@]56CCCN5C[C@H](F)C6)nc4c3F)c12 [Compound 59, 1-((7-(8-ethynyl-7-fluoro-3-hydroxy-naphthalen-1-yl)-8-fluoro-2-(((2R,7aS)-2-fluorotetrahydro-1H-pyrrolizin-7a(5H)-yl)methoxy)pyrido[4,3-d]pyrimidin-4-yl)(methyl)amino)cyclopropane-1-carbonitrile] | – | – | – | – | – | – | – | 3.19 | 4.47 | 0.0367 | – | > 0.1 | 0.2
